Here are results for 20 molecules from ChEMBL document CHEMBL5606460, “ASAP - DENV-2 NS2B-NS3 protease fluorescence single point” (2024).

Among all 2,000 compounds or so, about 110 (5.5%) showed an effect of 50% or more. Some of the results follow.

The experiment deals with Genome polyprotein (dengue virus type 2) (UniProt P29990).
[1] abbreviates: Thailand/16681/1984, Concentration 25.0 uM, Number of replicates 1.0.

In the case of `CNC(=O)c1ccc2n1CCN(S(=O)(=O)c1cc(-c3ccccc3)no1)[C@@H]2C`, the inhibition – broadly, the relative decrease from the control value, in per cent – is, setting by setting: (Thailand/16681/1984, Concentration 49.5 uM, Number of replicates 2.0, Standard deviation 0.12064611250570736 %) 1.43%; (Thailand/16681/1984, Concentration 99.01 uM, Number of replicates 2.0, Standard deviation 1.80969147421719 %) 1.32%; (Thailand/16681/1984, Concentration 198.0 uM, Number of replicates 2.0, Standard deviation 1.5133216237653713 %) -2.32%.
As to `O=C(NCC1(c2ccncc2F)CCC1)[C@@]1(c2ccc(F)cc2)CCCNC1`, the inhibition (Thailand/16681/1984, Concentration 49.5 uM, Number of replicates 2.0, Standard deviation 0.9074685157350926 %) was -2.89%; the inhibition (Thailand/16681/1984, Concentration 99.01 uM, Number of replicates 2.0, Standard deviation 1.7740222143666056 %) was -1.32%; the inhibition (Thailand/16681/1984, Concentration 198.0 uM, Number of replicates 2.0, Standard deviation 1.670161679604597 %) was -0.296%.
Consider `c1cnc2c(C3CCN(Cc4c[nH]c5ncccc45)CC3)c[nH]c2c1`, for which the inhibition was -2.72% (Thailand/16681/1984, Concentration 49.5 uM, Number of replicates 2.0, Standard deviation 3.423355938229839 %); -0.872% (Thailand/16681/1984, Concentration 99.01 uM, Number of replicates 2.0, Standard deviation 3.579980033617295 %); 1.53% (Thailand/16681/1984, Concentration 198.0 uM, Number of replicates 2.0, Standard deviation 3.0314759737683956 %).
With `CCCC[C@H](NC(C)=O)C(=O)N[C@H](C(=O)Nc1ccc(C(N)=O)cc1)c1ccc(OCc2ccccc2)cc1`, the inhibition is -0.623% (Thailand/16681/1984, Concentration 49.5 uM, Number of replicates 2.0, Standard deviation 2.073896751762033 %); 4.02% (Thailand/16681/1984, Concentration 99.01 uM, Number of replicates 2.0, Standard deviation 0.38726109133313447 %); 23% (Thailand/16681/1984, Concentration 198.0 uM, Number of replicates 2.0, Standard deviation 0.14852549415239058 %).
On to `c1cnc2c(C3CCN(Cc4cnn5ccccc45)CC3)c[nH]c2c1`, for which the inhibition (Thailand/16681/1984, Concentration 49.5 uM, Number of replicates 2.0, Standard deviation 1.316281988110152 %) was -4.72%; the inhibition (Thailand/16681/1984, Concentration 99.01 uM, Number of replicates 2.0, Standard deviation 2.2605015442223797 %) was -3.44%; the inhibition (Thailand/16681/1984, Concentration 198.0 uM, Number of replicates 2.0, Standard deviation 0.9691516929362414 %) was -2.08%.
Turning to `O=C(NC[C@H]1CCCO1)c1cc(Cl)ccc1NS(=O)(=O)c1ccc(Oc2ccccc2Cl)cc1`, the inhibition came out at 86.2% (Thailand/16681/1984, Concentration 49.5 uM, Number of replicates 2.0, Standard deviation 0.11391652520397291 %); 84.7% (Thailand/16681/1984, Concentration 99.01 uM, Number of replicates 2.0, Standard deviation 0.06140357500812747 %); 79.4% (Thailand/16681/1984, Concentration 198.0 uM, Number of replicates 2.0, Standard deviation 0.13037604965923533 %).
As to `O=Cc1ccc(N2CCC(C(=O)NC3CCN(Cc4ccccc4)CC3)CC2)cc1`, the inhibition under setting [1] is 14.8%.
For `NCc1cccc(NC(=O)[C@@H](NC(=O)OCc2ccccc2)C2CCCCC2)c1`, the inhibition was -3.1% (Thailand/16681/1984, Concentration 49.5 uM, Number of replicates 2.0, Standard deviation 3.75421470496627 %); -1.76% (Thailand/16681/1984, Concentration 99.01 uM, Number of replicates 2.0, Standard deviation 3.4431804249233626 %); 79.9% (Thailand/16681/1984, Concentration 198.0 uM, Number of replicates 2.0, Standard deviation 6.458747607105988 %).
As for `COc1cccc(CCNC(=O)C2CCN(c3ccc(C=O)cc3)CC2)c1OC`, the inhibition under setting [1] was 13.5%.
`Cc1cc(N)c2cccc(Br)c2n1`: the inhibition is, setting by setting: (Thailand/16681/1984, Concentration 49.95 uM, Number of replicates 2.0, Standard deviation 5.849609152234285 %) -8.02%; (Thailand/16681/1984, Concentration 99.9 uM, Number of replicates 2.0, Standard deviation 5.75747614138947 %) -7.97%.
With `Cc1ccc(CNC(=O)c2cc(Cl)ccc2NS(=O)(=O)c2ccc(Oc3ccccc3Cl)cc2)s1`, the inhibition turned out to be 83.2% (Thailand/16681/1984, Concentration 49.5 uM, Number of replicates 2.0, Standard deviation 0.032039697063193553 %); 78.6% (Thailand/16681/1984, Concentration 99.01 uM, Number of replicates 2.0, Standard deviation 0.20602188771616411 %); 69.5% (Thailand/16681/1984, Concentration 198.0 uM, Number of replicates 2.0, Standard deviation 0.539307027447943 %).
Take `CCS(=O)(=O)c1ccc(CNC(=O)C2CCN(c3ccc(C=O)cc3)CC2)cc1`: the inhibition under setting [1] is 12.3%.
Regarding `Cc1c(Cl)ccc(CNCc2nnc3ccccn23)c1O`, the inhibition (Thailand/16681/1984, Concentration 49.5 uM, Number of replicates 2.0, Standard deviation 5.8955051683861095 %) was 4.07%; the inhibition (Thailand/16681/1984, Concentration 99.01 uM, Number of replicates 2.0, Standard deviation 2.4910858987542683 %) worked out at 2.66%; the inhibition (Thailand/16681/1984, Concentration 198.0 uM, Number of replicates 2.0, Standard deviation 4.912359631194546 %) was 4.41%.
Consider `O=C(Nc1cccc2cccnc12)C1CCNCC1`, for which the inhibition runs as follows: (Thailand/16681/1984, Concentration 49.95 uM, Number of replicates 2.0, Standard deviation 0.4211783883506398 %) -0.871%; (Thailand/16681/1984, Concentration 99.9 uM, Number of replicates 2.0, Standard deviation 1.2273405052219766 %) 51.5%.
As for `c1ccc(COC2CCN(Cc3c[nH]c4ccccc34)CC2)cc1`, the inhibition (Thailand/16681/1984, Concentration 49.5 uM, Number of replicates 2.0, Standard deviation 1.9694385272729356 %) was -2.63%; the inhibition (Thailand/16681/1984, Concentration 99.01 uM, Number of replicates 2.0, Standard deviation 2.1816894241710703 %) is -1.85%; the inhibition (Thailand/16681/1984, Concentration 198.0 uM, Number of replicates 2.0, Standard deviation 1.7282646927589878 %) was -0.28%.
`O=c1[nH]cc(Cl)cc1CN1CC[C@H](c2c[nH]c3ccccc23)C1`: the inhibition by setting is: (Thailand/16681/1984, Concentration 49.5 uM, Number of replicates 2.0, Standard deviation 3.728364673001962 %) -1.21%; (Thailand/16681/1984, Concentration 99.01 uM, Number of replicates 2.0, Standard deviation 4.129330739359081 %) -0.318%; (Thailand/16681/1984, Concentration 198.0 uM, Number of replicates 2.0, Standard deviation 4.448768616306302 %) 0.518%.
As to `O=Cc1ccc(N2CCC(C(=O)NCCc3ccc4ccccc4c3)CC2)cc1`, the inhibition under setting [1] turned out to be 12.2%.
Consider `Cc1cc(CO)c2cccc(Nc3cc(O)[nH]n3)c2n1`, for which the inhibition is 32.3% (Thailand/16681/1984, Concentration 49.95 uM, Number of replicates 2.0, Standard deviation 1.1262325758678584 %) and 51.5% (Thailand/16681/1984, Concentration 99.9 uM, Number of replicates 2.0, Standard deviation 0.556697154318326 %).
For `O=Cc1ccc(N2CCC(C(=O)NCCc3cc(Cl)ccc3Cl)CC2)cc1`, the inhibition under setting [1] came to 4.25%.
As to `Cc1cc(CO)c2cccc(Cc3ccccc3NC(=O)c3ccc(-c4ccccn4)s3)c2n1`, the inhibition is, setting by setting: (Thailand/16681/1984, Concentration 49.95 uM, Number of replicates 2.0, Standard deviation 1.6595858552014553 %) -1.78%; (Thailand/16681/1984, Concentration 99.9 uM, Number of replicates 2.0, Standard deviation 1.4560320447872408 %) 1.44%.
